{
  "source": "paper PMC5088048",
  "about": "(Structure (London, England : 1993), 2016)",
  "biological_target": "T1, KDM2B Fbox-LRR region (residues 1059–1336) (UniProt Q8NHM5 1059-1336)",
  "T1 sequence (looked up)": "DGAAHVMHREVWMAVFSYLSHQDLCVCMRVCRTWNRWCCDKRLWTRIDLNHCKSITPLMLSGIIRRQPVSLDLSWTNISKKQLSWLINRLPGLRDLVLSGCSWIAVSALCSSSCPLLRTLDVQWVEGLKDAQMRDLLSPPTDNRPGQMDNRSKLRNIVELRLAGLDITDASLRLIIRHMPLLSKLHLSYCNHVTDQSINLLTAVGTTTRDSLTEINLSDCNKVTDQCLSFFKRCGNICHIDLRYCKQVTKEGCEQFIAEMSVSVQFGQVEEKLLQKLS",
  "experiment": "AUC",
  "data": [
    {"binder": "SKP1 ([…]) (natural protein) not shown", "values": [
      {"measurement": "stoichiometry N", "value": 1}
    ]}
  ]
}
